Experimental data: the RNAGym collection of RNA variant scans (doi:10.7554/elife.90254)
The source gives no read counts; variants with many changes may rest on few reads.

B1: LINE1-mini (parent)
chain: GGCAGAGCUCAACACAGCGUGGCAAAGUGGCUGUGGCUAGACUGCC

Variants of: B1
Experiment: self-cleavage, relative activity (ratio to wild type); higher = more cleavage; in vitro, sequencing; the parent is a self-cleaving ribozyme

| Variant | self-cleavage |
| --- | --- |
| GUCAGAGCUCAACACUGCAUGGCAAAGUGGCUGUGGCUAGACUGGC [G2U A16U G19A C45G] | 0.03 |
| GGCACAGGUUAACACAGCGUGGCAAAGUGGCUGUGGCUAGACUGCU [G5C C8G C10U C46U] | 0.08 |
| GGCAGAGCUCAACACAGCGUGGCAAAGUGGCUGUGGAUAGAUUGGC [C37A C42U C45G] | 0.03 |
| GGCAGAGUUCAGCACAGCUUGGCAAAACGGCUGUGGUCAGACUGCC [C8U A12G G19U G27A U28C C37U U38C] | 0.03 |
| CGCAGAGCGCAACACAGCGUGGCAACGUGGCUGUGGUUAGACUGCC [G1C U9G A26C C37U] | 0.01 |
| GGCAGAGUUCAACACAGCGUGGAAAAGUGCCUGUGGCUAGACUGCC [C8U C23A G30C] | 0.06 |
| GGCAGAGCUCAACACAGCGCGGCAAAGUGGCUAUGGCUAGACUGGC [U20C G33A C45G] | 0.09 |
| GGAAGAGCUCAAUACAGCGGGGCCCACUGGCUGUGGCUAGACUGCC [C3A C13U U20G A24C A25C G27C] | 0.03 |
| GGCAGAGCUCAUCACAGCGUGGCACAGUGGCUGUGGCUAGACUCCC [A12U A25C G44C] | 0.19 |
| GGCAGAGCACAACACAGCGUUGCAAAGUGGCUGUGGCUAGACUGGC [U9A G21U C45G] | 0.41 |
| GGCAGCGCUCAACACAGCGUGGCACAGUGGCUGUGGCUAGACUUAG [A6C A25C G44U C45A C46G] | 0.07 |
| GGCAGAGCUCUACGCAGCGGGGCAAAGUUUCAGUGGCUAGACGGCC [A11U A14G U20G G29U G30U U32A U43G] | 0 |
| GGCAGAGCUAAACAGUACGUGACAAAGUGGCGGUGGCUAGACUGCC [C10A C15G A16U G17A G22A U32G] | 0.07 |
| GGCAGAUCUGAACACAGCGUGGUAAAGUGGCUGUGGCUAGACUGCC [G7U C10G C23U] | 0.03 |
| GGCAGAGCUCAACACAGCGUUGCAAAGUGGCUGUGGCUUGACUGCU [G21U A39U C46U] | 0.88 |
| GGCAGAGCUGAAGACAGCGUGGGAAAGUGGCUGUGGCUAGACUGCC [C10G C13G C23G] | 0.03 |
| GGCAGAGAUUAACACAGCGUGGCAAAGUGGCUGUCGCUAGACUGCC [C8A C10U G35C] | 0.04 |
| GGCCGUGCUAAACUCAGCGUGGAAAAGUGGCUGUGGCUAGACUGCC [A4C A6U C10A A14U C23A] | 0.01 |
| GGCAGAGCUCAACACAGCGCGGCAGAAAGGCUGGGGCUAGACUGAC [U20C A25G G27A U28A U34G C45A] | 0.13 |

| Variant | self-cleavage |
| --- | --- |
| GGCAGUGCUCAACACAGCGUGGCAAAUUUGCUGUGGCCAGACUGCC [A6U G27U G29U U38C] | 0.41 |
| GGCAGAGGUUAACACAGCGUGCCAAAGUGGCUGUGGCUAGACUGCC [C8G C10U G22C] | 0.03 |
| GUCAGAGCUUAACACAGCAUGGCAAAGUGGCUGUGGCUAGACUGCC [G2U C10U G19A] | 0.01 |
| GGGAGAGCUCAACACAGCGCGGCAAAGUGGAUGUUUCUAGAGUGCC [C3G U20C C31A G35U G36U C42G] | 0.03 |
| GGCAGAGCUCAACACGGCGUGGCAAAGUGGAUGUGGCUAUACUGCC [A16G C31A G40U] | 0 |
| GGCAGAGCUCAACACAGUGUGGCAAAGUGGCUCUGGCAAGACUGCC [C18U G33C U38A] | 0.01 |
| GGCAGUGCUCAACACAGGGUGGCAAAGUCGCUGUGGCUACGCUGCC [A6U C18G G29C G40C A41G] | 0.07 |
| GGUAGAGCUAAACACAGCGUGGCAAAGUGGCUGGGGCUAGACUGCC [C3U C10A U34G] | 0.03 |
| GGCAGUGCUCAACACAGCGUGGCAAAGUGGUCUUGGCUAGACUGCC [A6U C31U U32C G33U] | 0.19 |
| GGCUGAGCUCAACCCAGCGUGACAAAGUGGCUGUGGCUAGACUGCA [A4U A14C G22A C46A] | 0.05 |
| GGCAGAGAUCACCACAGCGUGGCAAAGUGGCUGUGCCUAGACUGCC [C8A A12C G36C] | 0.04 |
| GGCAGAGCUCAUUACAGCGUUGCAAAGUUGCUGUGGCUAGACUGCC [A12U C13U G21U G29U] | 0.06 |
| GUCAGAGCUACACACAGCGUGGCAAAGUGGCUGGGGCUAGACUGCC [G2U C10A A11C U34G] | 0 |
| CGUAGAGCUCAACACAGCGUGGCACAGUGGCUGUGGCUAGACUGCC [G1C C3U A25C] | 0.06 |
| GGCAGAGCUGAACACAGCGUGGCAAAGUGGUUGUGGCUAGACUUCC [C10G C31U G44U] | 0.01 |
| GGCAGACCUCAACACAGCGAGGCAAAGUGUCUGUGGCUAGACUGCC [G7C U20A G30U] | 0.07 |
| GGGAGAGUUCAACACAGCUUGGCAAAGAGGCUGAGGCUAGACAGCC [C3G C8U G19U U28A U34A U43A] | 0.07 |
| GGCGGAGGUCAACGCACCGUGGCAAAGUGGCUGUGGCCAGACUGCC [A4G C8G A14G G17C U38C] | 0.01 |
| GGAAGAGCUCAACACAGCGUGGCAAAGUGGCUGUGGCUAGACCCCC [C3A U43C G44C] | 0.12 |

| Variant | self-cleavage |
| --- | --- |
| GGCAGAGCUCAACACAGCGUGGCGAAGUCGCUGUGGCCAGACUGCC [A24G G29C U38C] | 0.11 |
| GCCACAGCUCGACACAGCGUGGCAAAGUGGCUGUUGCUAUACUGCC [G2C G5C A11G G35U G40U] | 0.03 |
| GUCAGAGCUCAACACAGCGUGGUAAAGUGGCUGUGCCUAGAUUGCC [G2U C23U G36C C42U] | 0.1 |
| GGCAGACCUCAACACCGCGUGGCAAAGUGGCUGAGGCUAGACUGCC [G7C A16C U34A] | 0.01 |
| GGCAGAGCUCAACAGAGCGUGGCAAAGUGGAUGUGGGUAGACUGCC [C15G C31A C37G] | 0.02 |
| CGCAGAGCUCAACACAGCGUGGCAAAAUGGCUGUGGCUAGACUGUA [G1C G27A C45U C46A] | 0.12 |
| GCCAGAGCUCAAGACAGCGUGUCAAAGUGGCUGUGGCUAGUCUGCC [G2C C13G G22U A41U] | 0 |
| GGCAUAGCCCAACACAGGGUGGCAAAGUGGCUGUGGCUAGUCUGCC [G5U U9C C18G A41U] | 0.08 |
| CGCAGGGCUCAAAACAGCGUGGCAAAGUGGCUGUGGCGAGUCUGCC [G1C A6G C13A U38G A41U] | 0.01 |
| GGUAGAGCUCAACACAGCGGGGCAAACUGGCUGUGGCUAGACUGCC [C3U U20G G27C] | 0.07 |
| AGCAGAGCACAAGACAGCGUGGCAAAGCGGCUGUGACUAGACUGCC [G1A U9A C13G U28C G36A] | 1.46 |
| GGCAGAGUCAAACACAGCGUGGCAAAGUGGCUGUGGCUAAACUGCC [C8U U9C C10A G40A] | 0.01 |
| AGCAGAGCUCAAUACAGUGUGGCAAAGUGGCUGUGGCUAGACUGCC [G1A C13U C18U] | 0.09 |
| GGCAGAGCUCAACACUGCGUGGCAAUGUGGCUGUGGGUAGACUGCC [A16U A26U C37G] | 0.07 |
| GGCAGAGCUCAACACAGCGUGGCUAAGUGGCUGUGACUUGACUGCC [A24U G36A A39U] | 0.09 |
| GGCAGAGCUCAACACAGCGUGACAAAAUUGCUGUGGCUAAUCUGCC [G22A G27A G29U G40A A41U] | 0.05 |
| GGCAGAGCUCAACAUAGCGUGCCAAAGUGCCCGUGGCUAGACUGCC [C15U G22C G30C U32C] | 0.27 |
| GGUAUAGCUCAACACAGCGUAGCAAAGUGGCUGUGGCUAGACUGCC [C3U G5U G21A] | 0.31 |
